Values joined by “and” are separate entries in the source; they are usually repeats but may differ in a detail not shown here. Equal values may be shown once. The inconclusive results got no clear call from the source; some entries with a clear call stand among them for comparison. For some of these results: Potencies of inconclusive entries are doubtful fits and often do not repeat. Active and inactive are the calls of the source. Unless noted, the call rests on the fitted dose curve; in most records, active means well fitted curve in the direction sought with a large enough effect in the repeat runs; inconclusive means weak or mixed curves; inactive means no such curve, though single readings can be large; an effect the other way counts as inactive or inconclusive.
Legend:
[1] = molecular target: Peroxisome proliferator-activated receptor gamma (Homo sapiens) (UniProt P37231); assay: qHTS assay to identify small molecule antagonists of the peroxisome proliferator-activated receptor gamma (PPARg) signaling pathway (AID 743191; calls by dose curve; further: potency means the concentration at half of the fitted maximal effect; on all read-outs here: nearly all actives have a fitted effect of over 30% in size); details: HEK293H PPARg-UAS-bla, beta-lactamase ratio, antagonist, 17 h; for Potency: ratio activity, negative = inhibition: at 62.6 µM (top of the series) unless noted
Method in brief: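 GeneBLAzer PPARg UAS-bla HEK293H cells, 5 h post-plating, exposed to compounds 17 h at 37C. LiveBLAzer B/G FRET substrate added for 1 h at room temperature; beta-lactamase reporter read by fluorescence intensity.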

[2] = qHTS assay for small molecule agonists of the antioxidant response element (ARE) signaling pathway (AID 743202; active means well fitted activation curve with a large enough effect in the signal ratio in the repeat runs, not every such curve was filed as active; inconclusive means weak or mixed curves, or effect the other way; inactive means no such curve, though single readings can be large or run the other way; the % refers to the signal ratio; further: on the % scale 0 is the no-effect control and ±100 the full control effect); details: HepG2 ARE-bla reporter, beta-lactamase FRET, 16 h; activation: at 73.3 µM (top of the series) unless noted
Method in brief: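 ARE-bla HepG2 cells (beta-lactamase reporter under the antioxidant response element), plated 5 hours, then exposed to compounds 16 hours at 37 C. LiveBLAzer B/G FRET substrate added for 2 hours at room temperature; fluorescence intensity read.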

[3] = molecular target: Vitamin D3 receptor (Homo sapiens) (UniProt P11473); assay: qHTS assay to identify small molecule antagonists of the vitamin D receptor (VDR) signaling pathway (AID 743223; active means well fitted inhibition curve with a large enough effect in the signal ratio in the repeat runs, not every such curve was filed as active; inconclusive means weak or mixed curves, or effect the other way; inactive means no such curve, though single readings can be large or run the other way; the % refers to the signal ratio; further: on the % scale 0 is the no-effect control and ±100 the full control effect); details: VDR-UAS-bla HEK293T, beta-lactamase FRET ratio, 16 h; activity change, negative = inhibition: at 61 µM (top of the series) unless noted
Method in brief: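 Beta-lactamase activity in VDR-bla cells is measured by FRET substrate fluorescence (2 h, room temperature) after cells spend 16 h at 37C with test compound and 3 nM final 1alpha,25-dihydroxyvitamin D3.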

[4] = qHTS assay to identify small molecule agonists of the AP-1 signaling pathway - cell viability counter screen (AID 1159525; calls by dose curve; further: nearly all actives have a fitted effect of over 55% in size; further: potency means the concentration at half of the fitted maximal effect)
Method in brief: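 AP-1-bla ME-180 cells in Opti-MEM with 0.5% dialyzed FBS, compound exposure 5 h at 37 C in 15-point titration. Viability read in the same wells as ATP content by CellTiter-Glo luminescence, normalised to tetra-n-octylammonium bromide and DMSO controls.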

[5] = qHTS assay to identify small molecule antagonists of the progesterone receptor (PR) signaling pathway - cell viability counter screen (AID 1346798); further: nearly all actives have a fitted effect of over 50% in size; further: potency means the concentration at half of the fitted maximal effect
Method in brief: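 ATP content as viability readout: CellTiter-Glo luminescence, 30 min room temperature, in PR-UAS-bla HEK293T cells after 16 hr compound/R5020 treatment at 37C and 5% CO2.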

[6] = molecular target: Cytochrome P450 2D6 (Homo sapiens) (UniProt P10635); assay: Cytochrome P450 Family 2 Subfamily D Member 6 (CYP2D6) small molecule antagonists: luciferase reporter qHTS assay (AID 1671196); further: potency means the concentration at half of the fitted maximal effect; nearly all actives have a fitted effect of over 50% in size
Method in brief: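 Each well received CYP2D6 with its proluciferin substrate and chemical, sat 10 min, then got NADPH regeneration solution for 1 h at room temperature. Luminescence in RLU served as the activity measure.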

[7] = molecular target: Cytochrome P450 2C9 (Homo sapiens) (UniProt P11712); assay: Cytochrome P450 Family 2 Subfamily C Member 9 (CYP2C9) small molecule antagonists: luciferase reporter qHTS assay (AID 1671198); further: nearly all actives have a fitted effect of over 50% in size; further: potency means the concentration at half of the fitted maximal effect
Method in brief: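 P450-Glo proluciferin substrate with CYP2C9 enzyme; 10 min RT preincubation, then NADPH regeneration 1 h at 37C; luciferin detection reagent 20 min RT, luminescence in relative luminescence units.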

[8] = qHTS assay for small molecule disruptors of the mitochondrial membrane potential (AID 720635); details: HepG2 mitochondrial membrane potential, Mito-MPS dye ratio; ratio activity, negative = MMP loss: at 83.2 µM (top of the series) unless noted; further: on the % scale 0 is the no-effect control and ±100 the full control effect
Method in brief: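 HepG2 cells exposed to compound 1 hr at 37C, then Mito-MPS dye 30 min. Ratio read of aggregate (540/590 nm) versus monomer (490/535 nm) fluorescence.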

[9] = molecular target: Glucocorticoid receptor (Homo sapiens) (UniProt P04150); assay: qHTS assay to identify small molecule antagonists of the glucocorticoid receptor (GR) signaling pathway (AID 720692; active means well fitted inhibition curve with a large enough effect in the signal ratio in the repeat runs, not every such curve was filed as active; inconclusive means weak or mixed curves, or effect the other way; inactive means no such curve, though single readings can be large or run the other way; the % refers to the signal ratio; further: on the % scale 0 is the no-effect control and ±100 the full control effect); details: GR-bla HeLa, beta-lactamase FRET ratio, dexamethasone-stimulated, 18 h; activity change, negative = inhibition: at 58.5 µM (top of the series) unless noted
Method in brief: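 Inhibition of glucocorticoid signalling is measured in HeLa cells with a GRE-controlled beta-lactamase reporter; cells are co-treated with compound and 5 nM dexamethasone (final) for 18 h before FRET substrate readout.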

[10] = qHTS assay to identify small molecule agonists of the AP-1 signaling pathway (AID 1159526; calls by dose curve; further: on the % scale 0 is the no-effect control and ±100 the full control effect); details: ME-180 (cervical carcinoma) AP-1-bla reporter, beta-lactamase FRET ratio, 5 h; activation: at 76.8 µM (top of the series) unless noted
[11] = molecular target: Retinoic acid receptor RXR-alpha (Homo sapiens) (UniProt P19793); assay: qHTS assay to identify small molecule agonists of the RXR signaling pathway (AID 1159527; calls by dose curve; further: potency means the concentration at half of the fitted maximal effect; nearly all actives have a fitted effect of over 35% in size); details: HEK293T RXRa-UAS-bla, beta-lactamase ratio, 16 h; activation: at 76.8 µM (top of the series) unless noted
Method in brief: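 Fluorescence ratio readout (460 vs 530 nm) from GeneBLAzer RXR-alpha HEK 293T cells after 16 hr compound treatment; cells seeded 5 hr beforehand in low-serum, charcoal-stripped medium.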

[12] = qHTS assay to identify small molecule antagonists of the sonic hedgehog signaling (Shh) pathway (AID 1259369; calls by dose curve; further: nearly all actives have a fitted effect of over 45% in size; further: potency means the concentration at half of the fitted maximal effect)
Method in brief: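 For antagonist detection, the reporter line received test compounds together with conditioned medium, incubated 24hr at 37 C, 5% CO2, then luminescence was recorded following 30min room-temperature luciferase reagent incubation.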

[13] = qHTS assay to identify small molecule agonists of the progesterone receptor (PR) signaling pathway - cell viability counter screen (AID 1346799; calls by dose curve; further: potency means the concentration at half of the fitted maximal effect; nearly all actives have a fitted effect of over 45% in size)
Method in brief: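 Cytotoxicity in PR-bla HEK293T cells: 16 h compound, 37C; CellTiter-Glo added post-FRET read; luminescence after 30 min RT.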

[14] = qHTS assay for identifying genotoxic compounds that show differential cytotoxicity against isogenic chicken DT40 cell lines with known DNA damage response pathways - Rev3 mutant cell line (AID 743014); details: chicken DT40 Rev3-/- viability, CellTiter-Glo, 40 h; activity, negative = cytotoxicity: at 68.4 µM (top of the series); further: potency means the concentration at half of the fitted maximal effect; nearly all actives have a fitted effect of over 55% in size
[15] = qHTS assay to identify small molecule antagonists of the thyroid receptor (TR) signaling pathway - cell viability counter screen (AID 743064); details: GH3.TRE-Luc viability, CellTiter-Fluor, 24 h; activity change, negative = cytotoxic: at 70.3 µM (top of the series) unless noted; further: potency means the concentration at half of the fitted maximal effect; nearly all actives have a fitted effect of over 50% in size
Method in brief: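 Counter screen for cytotoxicity: compound plus T3 (1 nM final) on GH3.TRE-Luc cells, 23.5 h at 37 °C, then fluorescence viability readout with CellTiter-Fluor.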

[16] = molecular target: Cytochrome P450 1A2 (Homo sapiens) (UniProt P05177); assay: Cytochrome P450 Family 1 Subfamily A Member 2 (CYP1A2) small molecule antagonists: luciferase reporter qHTS assay (AID 1671199); further: nearly all actives have a fitted effect of over 50% in size; further: potency means the concentration at half of the fitted maximal effect
Method in brief: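 Enzymatic CYP1A2 assay, human, luminescent: 10 min compound–enzyme–substrate preincubation, 1 h NADPH-dependent turnover, 20 min detection step, room temperature throughout. Reduced light indicates lower CYP1A2 activity.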

[17] = qHTS assay to identify small molecule agonists of H2AX (AID 1224845; active means well fitted activation curve with a large enough effect in the signal ratio in the repeat runs, not every such curve was filed as active; inconclusive means weak or mixed curves; the % refers to the signal ratio; further: potency means the concentration at half of the fitted maximal effect); details: CHO-K1 phospho-H2AX Ser139 HTRF, 3 h; activation (H2AX phosphorylation): at 154 µM (top of the series) unless noted
Method in brief: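 Wild-type CHO-K1 cells, plated overnight, exposed 3hr at 37C to 15 concentrations (0.76% DMSO final). Lysed, then HTRF anti-pH2AX (S139) cryptate and anti-H2AX-d2 antibodies, 24 hr room temperature; 665/620 nm emission read.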
Tags describe the fitted curve by direction and shape or compound fluorescence and quenching.

UniProt P37231, sequence (P37231 whole entry, looked up): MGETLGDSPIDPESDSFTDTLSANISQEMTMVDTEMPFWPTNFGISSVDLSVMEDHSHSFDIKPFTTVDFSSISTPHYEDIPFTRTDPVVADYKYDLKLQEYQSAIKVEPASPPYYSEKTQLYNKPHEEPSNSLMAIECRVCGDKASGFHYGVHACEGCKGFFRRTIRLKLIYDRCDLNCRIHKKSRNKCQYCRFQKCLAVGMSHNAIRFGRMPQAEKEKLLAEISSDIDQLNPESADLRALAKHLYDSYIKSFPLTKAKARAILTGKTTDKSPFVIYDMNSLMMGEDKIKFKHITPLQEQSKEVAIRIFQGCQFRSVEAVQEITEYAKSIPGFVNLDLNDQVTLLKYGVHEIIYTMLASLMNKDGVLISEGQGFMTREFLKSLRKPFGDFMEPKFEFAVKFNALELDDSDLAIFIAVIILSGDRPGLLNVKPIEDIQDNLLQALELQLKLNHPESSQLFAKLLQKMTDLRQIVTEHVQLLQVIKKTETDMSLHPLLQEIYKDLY
UniProt P11712, sequence (P11712 whole entry, looked up): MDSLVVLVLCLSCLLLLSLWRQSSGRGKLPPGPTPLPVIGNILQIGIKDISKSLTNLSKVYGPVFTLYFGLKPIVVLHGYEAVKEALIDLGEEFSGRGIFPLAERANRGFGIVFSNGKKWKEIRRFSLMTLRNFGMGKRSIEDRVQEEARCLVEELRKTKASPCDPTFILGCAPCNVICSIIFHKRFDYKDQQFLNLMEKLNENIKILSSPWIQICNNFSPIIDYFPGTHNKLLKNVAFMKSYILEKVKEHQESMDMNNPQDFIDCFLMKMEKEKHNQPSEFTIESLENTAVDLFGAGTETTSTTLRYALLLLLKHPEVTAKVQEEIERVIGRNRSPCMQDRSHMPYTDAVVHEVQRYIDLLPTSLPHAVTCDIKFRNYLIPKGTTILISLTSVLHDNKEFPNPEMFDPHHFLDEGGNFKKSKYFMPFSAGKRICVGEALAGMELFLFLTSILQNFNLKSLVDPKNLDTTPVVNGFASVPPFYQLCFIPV
UniProt P04150, sequence (P04150 whole entry, looked up): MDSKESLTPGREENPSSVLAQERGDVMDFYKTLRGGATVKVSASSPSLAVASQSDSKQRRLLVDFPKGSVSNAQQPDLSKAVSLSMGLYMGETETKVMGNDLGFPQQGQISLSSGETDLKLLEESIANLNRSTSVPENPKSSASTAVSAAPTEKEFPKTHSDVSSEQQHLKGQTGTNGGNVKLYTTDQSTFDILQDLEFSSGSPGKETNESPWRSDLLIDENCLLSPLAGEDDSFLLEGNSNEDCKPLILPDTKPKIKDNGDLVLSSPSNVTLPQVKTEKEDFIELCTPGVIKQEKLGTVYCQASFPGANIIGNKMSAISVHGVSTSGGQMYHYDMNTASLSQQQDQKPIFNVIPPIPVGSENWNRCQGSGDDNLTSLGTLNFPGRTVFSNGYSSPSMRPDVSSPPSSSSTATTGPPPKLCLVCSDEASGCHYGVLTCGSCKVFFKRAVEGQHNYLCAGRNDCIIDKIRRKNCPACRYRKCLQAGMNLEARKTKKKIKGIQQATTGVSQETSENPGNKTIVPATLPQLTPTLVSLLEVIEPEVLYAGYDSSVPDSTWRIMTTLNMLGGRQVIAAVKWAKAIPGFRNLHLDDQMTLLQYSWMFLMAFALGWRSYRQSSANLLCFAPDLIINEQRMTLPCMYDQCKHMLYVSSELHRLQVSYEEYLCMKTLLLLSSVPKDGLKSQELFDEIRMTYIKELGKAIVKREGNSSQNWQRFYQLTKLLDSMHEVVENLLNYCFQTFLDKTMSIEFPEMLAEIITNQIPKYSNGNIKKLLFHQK
UniProt P05177, sequence (P05177 whole entry, looked up): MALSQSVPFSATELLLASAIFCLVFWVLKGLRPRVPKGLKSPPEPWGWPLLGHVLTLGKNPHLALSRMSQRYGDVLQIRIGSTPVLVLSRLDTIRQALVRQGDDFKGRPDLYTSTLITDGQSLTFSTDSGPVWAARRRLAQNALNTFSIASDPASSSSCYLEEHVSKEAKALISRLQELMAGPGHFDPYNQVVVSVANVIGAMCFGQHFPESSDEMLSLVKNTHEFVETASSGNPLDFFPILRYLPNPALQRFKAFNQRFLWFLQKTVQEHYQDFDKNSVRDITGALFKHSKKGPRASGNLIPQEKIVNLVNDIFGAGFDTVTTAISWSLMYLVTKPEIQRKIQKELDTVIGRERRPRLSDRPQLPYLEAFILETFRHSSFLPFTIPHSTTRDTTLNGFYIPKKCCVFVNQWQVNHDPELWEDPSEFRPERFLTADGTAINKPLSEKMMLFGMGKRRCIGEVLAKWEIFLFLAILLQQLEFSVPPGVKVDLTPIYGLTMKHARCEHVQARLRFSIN
UniProt P10635, sequence (P10635 whole entry, looked up): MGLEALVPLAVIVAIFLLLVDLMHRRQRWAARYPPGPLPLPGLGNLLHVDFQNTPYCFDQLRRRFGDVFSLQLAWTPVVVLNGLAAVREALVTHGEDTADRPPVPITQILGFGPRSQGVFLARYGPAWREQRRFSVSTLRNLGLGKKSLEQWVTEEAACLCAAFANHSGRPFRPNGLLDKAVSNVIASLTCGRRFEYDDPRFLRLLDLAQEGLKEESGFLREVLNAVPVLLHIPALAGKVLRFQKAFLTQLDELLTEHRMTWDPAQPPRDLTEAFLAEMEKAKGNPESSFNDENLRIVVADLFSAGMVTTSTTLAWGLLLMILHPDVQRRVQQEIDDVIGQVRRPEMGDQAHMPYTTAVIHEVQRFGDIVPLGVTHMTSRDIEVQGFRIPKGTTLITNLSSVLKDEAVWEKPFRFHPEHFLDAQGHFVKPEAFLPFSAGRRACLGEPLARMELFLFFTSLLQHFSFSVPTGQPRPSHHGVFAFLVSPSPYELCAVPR
UniProt P11473, sequence (P11473 whole entry, looked up): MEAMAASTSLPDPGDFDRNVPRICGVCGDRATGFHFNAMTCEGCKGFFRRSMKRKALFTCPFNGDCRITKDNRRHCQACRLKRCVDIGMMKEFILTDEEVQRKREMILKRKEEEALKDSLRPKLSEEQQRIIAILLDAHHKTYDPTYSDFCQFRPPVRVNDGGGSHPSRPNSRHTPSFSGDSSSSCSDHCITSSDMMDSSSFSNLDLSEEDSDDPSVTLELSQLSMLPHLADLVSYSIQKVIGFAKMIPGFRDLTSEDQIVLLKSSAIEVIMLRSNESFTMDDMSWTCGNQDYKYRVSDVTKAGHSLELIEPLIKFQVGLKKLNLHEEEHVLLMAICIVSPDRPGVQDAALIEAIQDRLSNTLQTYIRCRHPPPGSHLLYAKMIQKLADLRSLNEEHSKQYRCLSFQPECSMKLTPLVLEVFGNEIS
UniProt P19793, sequence (P19793 whole entry, looked up): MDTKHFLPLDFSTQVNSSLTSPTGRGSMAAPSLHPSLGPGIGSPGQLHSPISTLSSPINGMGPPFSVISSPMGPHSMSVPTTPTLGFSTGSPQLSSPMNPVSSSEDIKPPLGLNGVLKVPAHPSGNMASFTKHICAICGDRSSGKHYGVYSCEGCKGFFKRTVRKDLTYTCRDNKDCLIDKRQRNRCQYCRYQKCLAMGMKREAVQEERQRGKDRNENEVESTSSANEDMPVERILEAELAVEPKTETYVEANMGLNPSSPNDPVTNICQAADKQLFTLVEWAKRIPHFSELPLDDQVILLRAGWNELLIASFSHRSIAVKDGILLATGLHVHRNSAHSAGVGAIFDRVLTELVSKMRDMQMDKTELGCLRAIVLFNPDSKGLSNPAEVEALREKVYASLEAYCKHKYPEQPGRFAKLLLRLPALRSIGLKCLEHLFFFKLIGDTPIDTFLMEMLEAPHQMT

CC(C)(O)C#N
ratio activity, negative = inhibition ([1]; at 62.6 µM (top of the series)): inconclusive: -1.52%
ratio activity, negative = inhibition ([1]; at 81.1 µM (top of the series)): inconclusive: -2.96%
activation [2]: inconclusive: -28.2%
activity change, negative = inhibition [3]: inconclusive: 7.41%
Potency [4]: inactive
Potency [5]: inactive
Potency [6]: inconclusive: 67.2 µM [inhibitor, partial curve]
Potency [7]: active: 42.4 µM and inconclusive: 63.3 µM [inhibitor, partial curve, poor fit]

O=C(NC(=O)c1cc(F)c(F)cc1Cl)Nc1cc(F)ccc1N1CCC(C(=O)O)CC1
ratio activity, negative = MMP loss [8]: inconclusive: 11%
activity change, negative = inhibition [9]: inconclusive: -35.7%
Potency [1]: active: 1.9 µM
Potency [10]: inactive
Potency [11]: inconclusive: 23.9 µM [fluorescent, single point]
Potency [12]: inconclusive: 4.22 µM [inhibitor, full curve]
Potency [5]: inconclusive: 1.5 µM [rising, full curve, poor fit]
Potency [13]: inconclusive: 15 µM [rising, partial curve, poor fit]

C=CCN1CC[C@]23CCCC[C@H]2[C@H]1Cc1ccc(O)cc13
ratio activity, negative = MMP loss [8]: inconclusive: 17.8%
activity change, negative = inhibition [9]: inconclusive: -40.7%
Potency [14]: inconclusive: 18.8 µM [cytotoxic, partial curve, poor fit]
Potency [15]: inconclusive: 33.5 µM [cytotoxic, single point]
Potency [4]: inactive
Potency [12]: inactive
Potency [5]: inactive
Potency [7]: inactive
Potency [16]: inactive

CCOP(=S)(OCC)SCSC(C)(C)C
Potency [15]: inconclusive: 27.3 µM [rising, single point]
Potency [1]: inactive
Potency [4]: inconclusive: 5.54 µM [cytotoxic, single point]
Potency [17]: inconclusive: 127 µM [activator]
activation (H2AX phosphorylation) [17]: inconclusive: 10.4%
Potency [5]: inconclusive: 69.1 µM [cytotoxic, single point] and active: 48.6 µM
Potency [13]: inconclusive: 69.1 µM [cytotoxic, single point]
Potency [7]: active: 32 µM and active: 14.2 µM
Potency [16]: inconclusive: 40.2 µM [inhibitor, partial curve]
